# Assay results taken from the RNAGym collection of RNA variant scans (doi:10.7554/elife.90254).
# Read counts are not given, so values of variants with three or more changes are uncertain.
# B1: LINE1-full (parent)
# chain: UACGUAGGUGGUUUUCCCCUGAUAGUGCUAAGGGGGCCUGGAAGUUUGGACUGGGCAGAGCUCAACACAGCGUGGCAAAGUGGCUGUGGCUAGACUGCCUCUCUGGAUUCCUCGUCACUCAGCAGGGCAUCUCUGAGAGAAAUGCC
# Variants of: B1
# Assay: self-cleavage, relative activity (ratio to wild type); higher = more cleavage; in vitro, sequencing; the parent is a self-cleaving ribozyme
row,Variant,self-cleavage
1,UACGUAGGUGGUUUUCCCCUGAUAGUGCUAAGGGGGCCUGGAAGUUUGGACUGGGCAGAGCUCAACACGUCGUGGCAAAGUGGCUGAGGCUAGACUGCCUCUCUGGAUUCCCCGUCACUCAGCAGGGCAUCUCUGAGAGAAAUGCC [A69G G70U U87A U112C],0.01
2,UACGUAGGUGGUUUUCCCCUGAUAGUGCUAAGGGGGCCUGGAAGUUUGGACUGGGCAGAGCUCAACUCAGCGUGGCAAAGUGGCUGUGGCUAGACUGCCUCUCUGGAUCCCUCGUCACUCAGCAGGGCAUCUCUGAGAGAAGAGCC [A67U U109C A142G U143A],0
3,UACGUAGGUGGUUUUCCCCUGAUAGUGCUAAGGGGGCCUGGAAGUUUGGACUGGGCAGAGCUCAACAUAGCGUGGCACAGUGGCUGUGGCUCGACUGCCUCUCUGGAUUCCUCGUCGCUCAGCAGGGCAUCUCUGAGAGAAAUGCC [C68U A78C A92C A117G],0.24
4,UACGUAGGUGGUUUUCCCCUGAUAGUGCUAAGGGGGCCUGGAAGUUUGGACUGGGCAGAGCUCAACAAAGCGUGGCAGAGUGGCUGUGGCCAGACUGCCUCUCUGGAUUCCUCGUCACUCAGCAGGGCAUCUCUGAGAGAAAUGCC [C68A A78G U91C],0.03
5,UACGUAGGUGGUUUUCCCCUGAUAGUGCUAAGGGGGCCUGGAAGUUUGGACUGGGCAGAGCUCAACUCAGCGUGGCAAAGUGGCUGUGGCUAGACUGCCUCUCUGGAUCCCUCGUCACUCAGCAGGGCUUCUCUGAGAGAAAUGCC [A67U U109C A129U],0.18
6,UACGUAGGUGGUUUUCCCCUGAUAGUGCUAAGGGGGCCUGGAAGUUUGGACUGGGCAGAGCUCAACAUAGCGUGGCAACGUGGCUGUGGCUCGACUGCCUCUCUGGAUUCCUCGUCACUCAGCAGGGCAUCUCUGAGAGAAAUGCC [C68U A79C A92C],0.04
7,UACGUAGGUGGUUUUCCCCUGAUAGUGCUAAGGGGGCCUGGAAGUUUGGACUGGGCAGAGCUCAACAUAGCGUGGCAAAGUGGCCAUGGCUAGACUGCCUCUCUGGACUCCUCGUCACUCAGCAGGGCAUCUCUGAGAGAAAUGCC [C68U U85C G86A U108C],0.02
8,UACGUAGGUGGUUUUCCCCUGAUAGUGCUAAGGGGGCCUGGAAGUUUGGACUGGGCAGAGCUCAACAUAGCGUGGCAAAGUGGCUGUGGCUAGACUGCCUCUCUGGAUUCCUCGUCACUCAGCAGGGUAUCUCUGAGAAAAAUGCC [C68U C128U G139A],0.39
9,UACGUAGGUGGUUUUCCCCUGAUAGUGCUAAGGGGGCCUGGAAGUUUGGACUGGGCAGAGCUCAACACGGCGUGGCAUAGUGGCUGUGGCUAGACUGCCUCUCUGGAUUCCUCGUCACUCAGCAGGGCAUUUCUGAGAGAAAUGCC [A69G A78U C131U],0.61
10,UACGUAGGUGGUUUUCCCCUGAUAGUGCUAAGGGGGCCUGGAAGUUUGGACUGGGCAGAGCUCAACACGGCGUGGCGAAGUGGCUGUGGCUAGACUGCCUCUCUGGACUCCUCGUCACUCAGCAGGGCAUCUCUGAGAGAAAUGCC [A69G A77G U108C],0
11,UACGUAGGUGGUUUUCCCCUGAUAGUGCUAAGGGGGCCUGGAAGUUUGGACUGGGCAGAGCUCAACACGGCGUGGUAAAGUGGCUGUGGCUAGGCUGCCUCUUUGGAUUCCUCGUCACUCAGCAGGGCAUCCCUGAGAGAAAUGCC [A69G C76U A94G C103U U132C],0.03
12,UACGUAGGUGGUUUUCCCCUGAUAGUGCUAAGGGGGCCUGGAAGUUUGGACUGGGCAGAGCUCAACACGGCGUGGCAUAGUGGCUGUGGCUAGACUGCCUCUCUGGAUCCCUCGUCACUCAGCAGGGCAUCUCUGAGAGAAAUGCC [A69G A78U U109C],0.91
13,UACGUAGGUGGUUUUCCCCUGAUAGUGCUAAGGGGGCCUGGAAGUUUGGACUGGGCAGAGCUCAACACCGCGUGGCAAAGUGGCUGUGGCAAGACUGCCUCUCAGGAUUCCUCGUCACUCAGCAGGGCAUCUCUGAGAGCAAUGCC [A69C U91A U104A A140C],0
14,UACGUAGGUGGUUUUCCCCUGAUAGUGCUAAGGGGGCCUGGAAGUUUGGACUGGGCAGAGCUCAACACGGCGUGGCAAAGUGGCUGUGGCUAGACUGCCUCUCUGGGUUCCUCGACACUCAGCAGGGCGUCUCUGAGAGAAAUGCC [A69G A107G U115A A129G],0
15,UACGUAGGUGGUUUUCCCCUGAUAGUGCUAAGGGGGCCUGGAAGUUUGGACUGGGCAGAGCUCAACUCAGCGUGGCAAAGUGGCUGUGGCUAGACUGCCUCUCAGGAUUCCUCGUCACUCAGCAGGGCAUCUCUGAGGGAAAUGCC [A67U U104A A138G],0.08
16,UACGUAGGUGGUUUUCCCCUGAUAGUGCUAAGGGGGCCUGGAAGUUUGGACUGGGCAGAGCUCAACAUAGCGUGGCAAAGUGGCCGUGGCUGGACUGCCUCUCUGGAUUCCUCGUCACUCAGCAGGGCAUCUCUGAGAGAAAUGCC [C68U U85C A92G],0.07
17,UACGUAGGUGGUUUUCCCCUGAUAGUGCUAAGGGGGCCUGGAAGUUUGGACUGGGCAGAGCUCAACACGGCGUGGCAGAGUGGCUGUGGCUAGACUGCCUCUCUGGAUUCCUCGUCACACAGCAGGGCAUCUCUGAGAGAAAUGCC [A69G A78G U119A],0
18,UACGUAGGUGGUUUUCCCCUGAUAGUGCUAAGGGGGCCUGGAAGUUUGGACUGGGCAGAGCUCAACAUAGCGUGGCAAAGUGGCUGUGGCUAGACUGCCUCUCUGGAUUCCUCGCCACUCAGCGGGGCGUCUCUGAGAGAAACGCC [C68U U115C A124G A129G U143C],0.02
19,UACGUAGGUGGUUUUCCCCUGAUAGUGCUAAGGGGGCCUGGAAGUUUGGACUGGGCAGAGCUCAACACGGCGUGGCAAAGUGGCUGUGGCUAGACUACCUCUCUGGAUUCCUCGUCACUCAGCAGGGCAUCUCUGAGAAAAAUGCC [A69G G97A G139A],0.02
20,UACGUAGGUGGUUUUCCCCUGAUAGUGCUAAGGGGGCCUGGAAGUUUGGACUGGGCAGAGCUCAACACGGCGUGGCAAAGUGGCUGUGGCUAGGCUGCCUCUCUGGAUCCCUCGUCACUCAGCAGGGCAUCUCUGAGAGAAAUGCC [A69G A94G U109C],1.15

row,Variant,self-cleavage
1,UACGUAGGUGGUUUUCCCCUGAUAGUGCUAAGGGGGCCUGGAAGUUUGGACUGGGCAGAGCUCAACACGGCGUGGCAAAGUGGCUGUGGCUAGACUGCCUCUCUGGAUUCCUCGUCGCUCAGCAGGGCAUCUCUGAGAGGAAUGCC [A69G A117G A140G],0.63
2,UACGUAGGUGGUUUUCCCCUGAUAGUGCUAAGGGGGCCUGGAAGUUUGGACUGGGCAGAGCUCAACACGGCGUGGCAAGGUGGCUGUGGCUAGACUGCCUCUCUGGAUUCCUCGCCACUCAGCAGGGCAUCUCUGAGAGAGAUGCC [A69G A79G U115C A141G],0
3,UACGUAGGUGGUUUUCCCCUGAUAGUGCUAAGGGGGCCUGGAAGUUUGGACUGGGCAGAGCUCAACAUAGCGUGGCAAUGUGGCUGUGGCUAGACUGCCUCUCUGGAUUCCUCGUCACUCAGCAGGGCUUUUCUGAGAGAAAUGCC [C68U A79U A129U C131U],0.31
4,UACGUAGGUGGUUUUCCCCUGAUAGUGCUAAGGGGGCCUGGAAGUUUGGACUGGGCAGAGCUCAACAAAGCGUGGCAAAGUGGCUGUGGCUAGACUGCCUCUCUGGAUCCCUCGUCACUCAGCAGGGCAUCUCUGAGAGGAAUGCC [C68A U109C A140G],0.05
5,UACGUAGGUGGUUUUCCCCUGAUAGUGCUAAGGGGGCCUGGAAGUUUGGACUGGGCAGAGCUCAACACGGCGUGGCAAAGUGGCUGUGGCUAGGCUGCCUCUCUGGAUUCCUCGUCACUCAGCAGGGUGUCUCUGAGAGAAGUGCC [A69G A94G C128U A129G A142G],0.23
6,UACGUAGGUGGUUUUCCCCUGAUAGUGCUAAGGGGGCCUGGAAGUUUGGACUGGGCAGAGCUCAACACGGCGUGGCUAAGUGGCUGUGGCUUGACUGCCUCUCUGGAUUCCUCGUCACUCAGCAGGGCAUCUCUGAGAGAAAUGCC [A69G A77U A92U],0.18
7,UACGUAGGUGGUUUUCCCCUGAUAGUGCUAAGGGGGCCUGGAAGUUUGGACUGGGCAGAGCUCAACACGGCGUGGCAAGGUGGCUGUGGCUAGACUACCUCUCUGGAUUCCUCGUCACUCAGCAGGGCAUCUCUGAGAGGAAUGCC [A69G A79G G97A A140G],0.05
8,UACGUAGGUGGUUUUCCCCUGAUAGUGCUAAGGGGGCCUGGAAGUUUGGACUGGGCAGAGCUCAACUCAGCGUGGCAAAGUGGCUGUGGCUAGACUGCCACUCUGGAUUCCUCGUCACUCAGCAGGGCAUCUCUGAGAGAGAUGCC [A67U U100A A141G],0
9,UACGUAGGUGGUUUUCCCCUGAUAGUGCUAAGGGGGCCUGGAAGUUUGGACUGGGCAGAGCUCAACACGGCGUGGCAAAGUGGCUGUGGCUAGACUGCCUCUCUGGAUUCCUCGUCACUCAGCAGGGCAUCUCUGAGAGAGACGCC [A69G A141G U143C],0
10,UACGUAGGUGGUUUUCCCCUGAUAGUGCUAAGGGGGCCUGGAAGUUUGGACUGGGCAGAGCUCAACACGGCGUGGCAAAGUGGCUGUGGCUAGACUGCCUCUCUGGAUUCCUCGUCACUCGGCAGGGCAUCUCUGGGAGAAAUGCC [A69G A121G A136G],1.15
11,UACGUAGGUGGUUUUCCCCUGAUAGUGCUAAGGGGGCCUGGAAGUUUGGACUGGGCAGAGCUCAACUCAGCGUGGCAAAGUGGCUGUGGCUAGACUGCCUCUCUGGAUUCCUCGUCACCCAGCAGGGCAUCUCUGAGAGAAACGCC [A67U U119C U143C],0.28
12,UACGUAGGUGGUUUUCCCCUGAUAGUGCUAAGGGGGCCUGGAAGUUUGGACUGGGCAGAGCUCAACACGGCGUGGCAGAGUGGCUGUGGCUAGACUGCCUCUCUGGAUUCCUCGUCACUCAGCAGGGCAUCUCUGAGAGAAACGCC [A69G A78G U143C],0
13,UACGUAGGUGGUUUUCCCCUGAUAGUGCUAAGGGGGCCUGGAAGUUUGGACUGGGCAGAGCUCAACAUAGCGUGGCAAAGUGGCUGUGGCUAGACUGCCUCUCUGGAUUCCUCGUCACUCAGCAUGGCAUCUCUGAGGGAAAUGCC [C68U G125U A138G],0.21
14,UACGUAGGUGGUUUUCCCCUGAUAGUGCUAAGGGGGCCUGGAAGUUUGGACUGGGCAGAGCUCAACACGCCGUGGCAAAGUGGCUGUGGCUAGACUGCCUCUCUGGGUUCCUCGUCUCUCAGCAGGGCAUCUCUGAGAGAAAUGCC [A69G G70C A107G A117U],0
15,UACGUAGGUGGUUUUCCCCUGAUAGUGCUAAGGGGGCCUGGAAGUUUGGACUGGGCAGAGCUCAACAUAGCGUGGCAAAGUGGCUGUGGCUAGACUGCCUCUCUGGGUUCCCCGUCACUCAGCAGGGCAUCUCUGAGAGAAAUGCC [C68U A107G U112C],0.39
16,UACGUAGGUGGUUUUCCCCUGAUAGUGCUAAGGGGGCCUGGAAGUUUGGACUGGGCAGAGCUCAACUCAGCGUGGCAAAGUGGCUGUGGCUAGACUGCCUCUCUGGACUCCUCGUCACUCAGCAGGGCUUCUCUGAGAGAAAUGCC [A67U U108C A129U],0.19
17,UACGUAGGUGGUUUUCCCCUGAUAGUGCUAAGGGGGCCUGGAAGUUUGGACUGGGCAGAGCUCAACACGGCGUGGCAAAGUGGCUGUGGCUAGACUGCCUCUUUGGAUUCCUCGUCACUCAGCAGGGCAUCUCUGGGAGAAAUGCC [A69G C103U A136G],0.42
18,UACGUAGGUGGUUUUCCCCUGAUAGUGCUAAGGGGGCCUGGAAGUUUGGACUGGGCAGAGCUCAACACGGCGUGGCAAAGUGGCUGUGACUAAACUGCCUCUCUGGAUUCCUCGUCACUCAGCAGGGCAUCUCUGAGAGAAAUGCC [A69G G89A G93A],0.02
19,UACGUAGGUGGUUUUCCCCUGAUAGUGCUAAGGGGGCCUGGAAGUUUGGACUGGGCAGAGCUCAACAAAGCGUGGCAAAGUGGCUGUGGCUAGACUGCAUCUCUGGAUUCCACGUCACUCAGCAGGGCAUCCCUGAGAGAAAUGCC [C68A C99A U112A U132C],0.02
